# Reference: the supplement of paper PMC7826260
# The other results are listed elsewhere or left out. The data describe in vitro nicking of single-stranded DNA by Rep domains for 1 h at 37 °C with 3 µM enzyme; only the middle of the 90-letter strands is printed. The score is log2 (uncut reads / reads without enzyme); the lower, the more was cut; hits are not called. The scaling is to total reads; values above 0 arise when much of the pool is cut.
# What was measured:
# Test in all cases: uncleaved DNA left, log2 of reads against the no-enzyme library (log2 ratio); higher = less cleavage (more negative = more Rep cleavage of the k-mer); sequences stand for … in CTCGTCCG…ACCGGAGA
# [1] = system: T1, Rep nickase domain of Muscovy duck circovirus
# T1 sequence (protein, residues 1-111, tag omitted): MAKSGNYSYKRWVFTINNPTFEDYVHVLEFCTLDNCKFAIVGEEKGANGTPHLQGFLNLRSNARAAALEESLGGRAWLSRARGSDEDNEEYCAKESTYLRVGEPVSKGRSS
# Description: (§1)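 A pool of 90-nt single-stranded DNAs with seven random bases just before the constant AC of the nick site (name = the seven bases) was cut by 3 µM recombinant His6-SUMO-tagged Rep nickase domain (300 nM DNA, 50 mM HEPES pH 8.0, 50 mM NaCl, 1 mM MnCl2, 1 h, 37 °C, three replicates). Uncut DNA was amplified and sequenced.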
# [2] = system: T2, Rep nickase domain of banana bunchy top virus
# T2 sequence (protein, residues 1-94, tag omitted): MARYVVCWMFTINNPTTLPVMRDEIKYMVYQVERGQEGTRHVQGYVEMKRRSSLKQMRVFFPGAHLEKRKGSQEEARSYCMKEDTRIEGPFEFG
# Description: as §1
# [3] = system: T3, Rep nickase domain of cabbage leaf curl virus
# T3 sequence (protein, residues 1-116, tag omitted): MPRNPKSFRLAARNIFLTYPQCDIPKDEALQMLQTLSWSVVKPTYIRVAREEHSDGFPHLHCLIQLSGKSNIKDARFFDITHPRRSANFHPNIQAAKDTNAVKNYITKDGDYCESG
# Description: as §1
# [4] = system: T4, Rep nickase domain of chickpea chlorotic dwarf virus
# T4 sequence (protein, residues 1-124, tag omitted): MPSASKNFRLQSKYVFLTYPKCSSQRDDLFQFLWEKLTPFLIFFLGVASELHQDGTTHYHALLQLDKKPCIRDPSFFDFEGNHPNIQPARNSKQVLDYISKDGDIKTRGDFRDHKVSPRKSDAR
# Description: as §1
# [5] = system: T5, Rep nickase domain of faba bean necrotic yellows virus
# T5 sequence (protein, residues 1-98, tag omitted): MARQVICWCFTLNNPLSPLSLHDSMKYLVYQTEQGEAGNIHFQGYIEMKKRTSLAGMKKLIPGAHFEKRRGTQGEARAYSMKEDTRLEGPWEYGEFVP
# Description: as §1
# [6] = system: T6, Rep nickase domain of maize striate mosaic virus
# T6 sequence (protein, residues 1-117, tag omitted): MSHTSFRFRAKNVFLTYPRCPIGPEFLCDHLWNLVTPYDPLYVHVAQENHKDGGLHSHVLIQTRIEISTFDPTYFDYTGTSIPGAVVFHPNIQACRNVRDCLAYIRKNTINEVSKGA
# Description: as §1
# [7] = system: T7, Rep nickase domain of porcine circovirus 2
# T7 sequence (protein, residues 2-116, tag omitted): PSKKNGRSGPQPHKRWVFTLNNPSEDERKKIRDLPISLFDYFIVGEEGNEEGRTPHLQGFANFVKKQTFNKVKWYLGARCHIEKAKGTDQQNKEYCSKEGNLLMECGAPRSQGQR
# Description: as §1
# [8] = system: T8, Rep nickase domain of tomato golden mosaic virus
# T8 sequence (protein, residues 1-124, tag omitted): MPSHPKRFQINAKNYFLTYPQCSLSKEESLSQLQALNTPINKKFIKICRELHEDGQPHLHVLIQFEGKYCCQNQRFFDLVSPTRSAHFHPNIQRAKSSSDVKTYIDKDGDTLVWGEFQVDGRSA
# Description: as §1
# [9] = system: T9, Rep nickase domain of tomato yellow leaf curl virus
# T9 sequence (protein, residues 1-136, tag omitted): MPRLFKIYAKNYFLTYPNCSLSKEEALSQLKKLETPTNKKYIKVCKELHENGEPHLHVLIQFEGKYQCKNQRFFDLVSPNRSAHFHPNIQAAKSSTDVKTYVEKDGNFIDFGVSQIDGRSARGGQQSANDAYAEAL
# Description: as §1
# [10] = system: T10, Rep nickase domain of wheat dwarf virus
# T10 sequence (protein, residues 1-137, tag omitted): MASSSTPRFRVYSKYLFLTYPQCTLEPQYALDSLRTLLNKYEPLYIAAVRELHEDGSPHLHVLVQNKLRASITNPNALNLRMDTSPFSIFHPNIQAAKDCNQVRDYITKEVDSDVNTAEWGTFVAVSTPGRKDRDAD
# Description: as §1
Sequence,uncleaved DNA left (log2) [1],uncleaved DNA left (log2) [2],uncleaved DNA left (log2) [3],uncleaved DNA left (log2) [4],uncleaved DNA left (log2) [5],uncleaved DNA left (log2) [6],uncleaved DNA left (log2) [7],uncleaved DNA left (log2) [8],uncleaved DNA left (log2) [9],uncleaved DNA left (log2) [10]
CGTGGAA,0.0429,-0.082,0.24,0.651,-0.0343,0.734,0.00177,-0.0678,-0.0632,-0.00812
GACGTGG,0.0203,-0.0199,0.185,0.373,0.0159,0.0482,0.155,0.0679,-0.0215,0.00787
CGCAACT,-0.00746,-0.17,-0.118,-2.11,-0.0271,-0.127,-0.372,-0.139,-0.0521,-0.165
ATCGGCC,-0.00716,0.033,-0.0565,0.0871,0.0179,-0.481,0.147,0.0115,0.0912,0.0757
AGAACCG,-0.117,-0.0769,-0.171,0.197,-0.0397,-0.61,0.0631,-0.02,-0.115,0.0324
GTGTGTT,-1.25,-0.332,0.087,0.382,-0.537,1.35,-2.57,-0.0439,-0.132,-0.121
AAACTTG,0.0229,0.0476,-0.317,-1.59,0.141,-0.581,0.161,0.0458,0.0828,0.00203
GTGCAGA,-0.032,-0.0502,0.185,0.773,-0.0489,0.535,0.0993,0.0243,0.0321,0.00668
CCGCAGC,-0.0765,-0.144,-0.389,-0.197,-0.15,-0.817,0.019,-0.000753,0.0733,-0.165
CGTCCCT,-0.0827,-0.0992,0.0366,-0.992,-0.0597,-0.0244,-0.355,-0.115,0.00294,-0.068
ACTTTAC,-0.1,-0.104,-0.469,-2.09,-0.12,-1.17,-0.0203,-0.167,-0.274,-0.12
CAGTGCT,-0.373,-2.12,-0.994,-1.92,-1.42,-1.18,-3.98,-0.168,-0.0742,-0.111
TAGCTGC,0.111,-0.0414,0.308,1.21,0.0762,1.2,0.177,0.0106,0.015,-0.011
TTCTAAC,-0.0148,0.00539,-0.113,-1.25,0.107,-0.193,0.00539,-0.0276,-0.0368,0.0162
CGACGAA,0.00243,0.127,0.0429,0.523,0.0463,1.28,-0.0675,-0.0244,-0.117,0.00584
ATGGCCG,-0.0823,-0.0833,-0.777,-0.347,-0.0453,-0.988,0.125,-0.109,0.00127,-0.122
TGAGAGG,0.192,0.135,0.428,0.872,0.109,0.867,0.274,0.292,0.0785,0.127
GGAACGC,0.0633,0.208,0.985,1.99,0.131,2.15,0.45,0.269,0.154,0.315
AATTGTC,0.108,-0.0352,-0.537,-0.675,0.122,-1.19,-0.132,-0.0986,0.0833,0.0636
GTGTCCG,-0.0271,-0.00847,-0.411,-0.428,-0.0338,-0.531,0.0553,0.0281,0.0236,-0.0339
AACTCTA,-0.303,-0.223,-0.395,-2.8,-0.0602,-0.731,-2.51,-0.216,-0.0594,-0.229
GATTTTT,-3,-2.83,0.0899,-1.28,-0.113,1.13,-3,-0.102,0.0931,-0.0764
TAATGTT,-3.87,-3.94,-5.45,-2.47,-3.33,-3.76,-4.22,-4.17,-3.77,-4.82
CGGTACT,-1.88,-0.317,0.278,-0.608,-0.673,1.27,-3.07,-0.109,-0.0932,-0.0685
TAAGCTA,-0.0112,-0.00537,-0.407,-2.42,-0.0284,0.779,0.101,0.0203,-0.203,-0.166
TTACCCG,-0.194,-0.0889,-1.2,-1.99,0.00315,-1.05,-2.07,-0.0168,-0.0161,-0.101
GAGCGCG,-0.0906,-0.0249,-0.418,-0.328,-0.0987,-0.561,0.0157,-0.0681,-0.0913,-0.121
GGACGCC,0.0661,0.0313,0.77,1.62,-0.0234,2.15,0.154,0.0826,-0.0859,0.155
CGATTCT,-1.77,-0.0185,-0.137,-1.68,-0.0352,-0.579,-1.79,-0.0443,0.0733,-0.0175
AACGTGG,0.00743,-0.0739,-0.144,0.0483,-0.0724,-0.568,0.0552,-0.109,-0.194,-0.0257
